Measured values: publication PMC8998556
No constants are given. Whether binding was seen depends on the method and setting. For some assays here: Binding seen in cells or lysates may run through a third protein. Some binding calls cover weakened binding; strength is not graded here. Tags and fused reporters may be left off the sequences shown. Blank lines part the entries; values can stand above or below the binder they belong to.

Key:
[1] = biological target: T1, AtHYL1-nYFP / AtHYL1-cYFP (full-length AtHYL1 with a YFP half at the C-terminal) (Arabidopsis thaliana), O04492; test: split reporter; BiFC with halves of YFP; transient co-expression by agro-infiltration in N. benthamiana (tobacco) leaves; confocal microscopy; settings: remark: other sources report otherwise
T1 chain: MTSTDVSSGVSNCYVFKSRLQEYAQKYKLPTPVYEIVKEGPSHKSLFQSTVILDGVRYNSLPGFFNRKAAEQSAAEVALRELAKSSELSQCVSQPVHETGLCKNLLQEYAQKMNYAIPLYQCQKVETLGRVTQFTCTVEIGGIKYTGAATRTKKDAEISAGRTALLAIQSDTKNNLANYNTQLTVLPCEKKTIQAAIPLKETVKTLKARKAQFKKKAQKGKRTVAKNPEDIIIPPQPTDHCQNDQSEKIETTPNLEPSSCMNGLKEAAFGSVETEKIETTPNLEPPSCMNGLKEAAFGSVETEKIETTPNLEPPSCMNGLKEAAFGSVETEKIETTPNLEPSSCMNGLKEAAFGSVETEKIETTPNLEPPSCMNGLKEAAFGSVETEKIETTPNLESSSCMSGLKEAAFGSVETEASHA

[2] = biological target: T2, nYFP-AtHYL1 / cYFP-AtHYL1 (full-length AtHYL1 with a YFP half at the N-terminal) (Arabidopsis thaliana), O04492; test: as above; settings: remark: other sources report otherwise
T2 chain: T1 chain

[3] = biological target: T3, AtHYL1C (C-terminal fragment of AtHYL1, 171-419 a.a.), yeast two-hybrid fusion (Arabidopsis thaliana) (UniProt O04492); test: two-hybrid; yeast two-hybrid with pGADT7 (AD) and pGBKT7 (BD) fusions; yeast grown on respective medium at 28 °C for 3 days
T3 sequence: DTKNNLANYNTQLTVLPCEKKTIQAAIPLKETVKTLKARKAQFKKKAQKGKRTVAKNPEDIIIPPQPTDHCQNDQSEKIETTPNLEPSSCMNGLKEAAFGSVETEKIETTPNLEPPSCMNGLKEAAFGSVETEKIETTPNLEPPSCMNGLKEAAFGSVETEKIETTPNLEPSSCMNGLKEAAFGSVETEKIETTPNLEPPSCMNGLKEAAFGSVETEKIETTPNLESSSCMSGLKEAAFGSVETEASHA

[4] = biological target: T4, AtHYL1N (N-terminal fragment of AtHYL1, 1-170 a.a.), yeast two-hybrid fusion (Arabidopsis thaliana) (UniProt O04492); test: as above
T4 sequence: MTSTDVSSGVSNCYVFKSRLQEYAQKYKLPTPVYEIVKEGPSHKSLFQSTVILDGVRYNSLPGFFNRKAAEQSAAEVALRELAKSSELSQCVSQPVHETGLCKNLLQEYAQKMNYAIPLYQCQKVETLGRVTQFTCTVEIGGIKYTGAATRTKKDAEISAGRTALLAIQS

[5] = biological target: T5, AtHYL1FL (hyponastic leaves 1, full length), yeast two-hybrid fusion (Arabidopsis thaliana) (UniProt O04492); test: as above
T5 sequence: T1 chain

[6] = biological target: T6, AtHYL1, BiFC fusion used with AtMPK3 (Arabidopsis thaliana) (UniProt O04492); test: split reporter; BiFC with halves of YFP; transient co-expression by agro-infiltration in N. benthamiana (tobacco) leaves; confocal microscopy
T6 sequence: T1 chain

binding [1]: binds
B1: AtHYL1-nYFP / AtHYL1-cYFP (full-length AtHYL1 with a YFP half at the C-terminal), O04492 1-419 (protein)
chain: T1 chain

binding [2]: binds
B2: nYFP-AtHYL1 / cYFP-AtHYL1 (full-length AtHYL1 with a YFP half at the N-terminal), O04492 1-419 (protein)
chain: T1 chain

binding [3]: no binding
binding [4]: binds
B3: AtSE (serrate), yeast two-hybrid fusion (protein, UniProt Q9ZVD0 1-720)
chain: MADVNLPPSDSVDNRLPEKSTSSSPPPPPPSSSLPQQEQEQDQQQLPLRRERDSRERRDERDIERPPPNRRERDRSPLPPPRRDYKRRPSLSPPPPYRDRRHSPPQRRSPPQKRYRRDDNGYDGRRGSPRGGYGPPDRRFGYDHGGGYDREMGGRPGYGDERPHGRFMGRYQDWEGGRGGYGDASNSGNPQRDGLMSYKQFIQELEDDILPSEAERRYQEYKSEYITTQKRAFFNTHKEEDWLKNKYHPTNLLSVIERRNDLAQKVAKDFLLDLQSGTLDLGPAVTALNKSGRTSEPNSEDEAAGVGKRKRHGMGGAKENELLSAAPKAPSFTSDPKRILTDVEQTQALVRKLDSEKKIEENVLQGSETEKSGREKLHSGSTGPVVIIRGLTSVKGLEGVELLDTLVTYLWRVHGLDYYGKVETNEAKGLRHVRAEGKVSDAKGDENESKFDSHWQERLKGQDPLEVMAAKEKIDAAATEALDPHVRKIRDEKYGWKYGCGAKGCTKLFHAAEFVYKHLKLKHTELVTELTTKVREELYFQNYMNDPNAPGGQPATQQSGPRDRPIRRKPSMENRLRDDRGGRRERDGRANGNDRNDRSEDQQRGDNDGGNPGEVGYDAFGGQGGVHVPPFLSDINPPPMLMPVPGAGPLGPFVPAPPEVAMQMFRDPSGPNPPFEGSGRGGPAPFLLSPAFRQDPRRLRSYQDLDAPEEEVTVIDYRSL

binding [3]: binds
binding [4]: binds
binding [5]: binds
B4: AtMPK3, yeast two-hybrid fusion (enzyme, UniProt Q39023 1-370)
chain: MNTGGGQYTDFPAVETHGGQFISYDIFGSLFEITSKYRPPIIPIGRGAYGIVCSVLDTETNELVAMKKIANAFDNHMDAKRTLREIKLLRHLDHENIIAIRDVVPPPLRRQFSDVYISTELMDTDLHQIIRSNQSLSEEHCQYFLYQLLRGLKYIHSANIIHRDLKPSNLLLNANCDLKICDFGLARPTSENDFMTEYVVTRWYRAPELLLNSSDYTAAIDVWSVGCIFMELMNRKPLFPGKDHVHQMRLLTELLGTPTESDLGFTHNEDAKRYIRQLPNFPRQPLAKLFSHVNPMAIDLVDRMLTFDPNRRITVEQALNHQYLAKLHDPNDEPICQKPFSFEFEQQPLDEEQIKEMIYQEAIALNPTYG

binding [6]: binds
B5: AtMPK3, BiFC fusion (enzyme, UniProt Q39023 1-370)
chain: B4 chain
